From publication PMC8705299
No constants are given. Whether binding was seen depends on the method and setting. In cells and extracts the contact can be indirect. Some binding calls cover weakened binding; strength is not graded here.

The chains behind the UniProt entries cited, without tags or fusion partners. Where a name states a change or a piece, a line headed by the entry shows the natural chain unless it says otherwise. A line that says so, or that is headed by a name, gives the form on record, which may keep a tag or linker.
UniProt O00472: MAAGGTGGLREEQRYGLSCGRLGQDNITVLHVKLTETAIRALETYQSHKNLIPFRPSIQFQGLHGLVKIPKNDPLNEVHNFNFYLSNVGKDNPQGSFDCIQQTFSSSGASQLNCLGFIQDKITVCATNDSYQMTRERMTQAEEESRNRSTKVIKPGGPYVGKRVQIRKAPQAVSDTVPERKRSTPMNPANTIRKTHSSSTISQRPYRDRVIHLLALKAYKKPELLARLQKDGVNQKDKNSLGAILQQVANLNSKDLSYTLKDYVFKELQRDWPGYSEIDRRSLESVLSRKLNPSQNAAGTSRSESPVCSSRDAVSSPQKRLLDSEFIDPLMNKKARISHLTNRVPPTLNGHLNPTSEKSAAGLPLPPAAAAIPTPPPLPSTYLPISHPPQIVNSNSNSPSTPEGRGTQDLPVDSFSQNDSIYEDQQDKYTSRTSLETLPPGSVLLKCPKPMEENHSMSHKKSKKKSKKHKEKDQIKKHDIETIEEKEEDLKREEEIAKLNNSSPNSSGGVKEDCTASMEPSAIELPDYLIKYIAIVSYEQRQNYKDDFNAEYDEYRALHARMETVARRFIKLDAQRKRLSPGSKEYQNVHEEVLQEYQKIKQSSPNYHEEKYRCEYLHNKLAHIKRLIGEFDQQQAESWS
ELL2 ΔR2-myc (full-length ELL2 harboring a deletion of region R2, aa 443–474) (O00472, form named): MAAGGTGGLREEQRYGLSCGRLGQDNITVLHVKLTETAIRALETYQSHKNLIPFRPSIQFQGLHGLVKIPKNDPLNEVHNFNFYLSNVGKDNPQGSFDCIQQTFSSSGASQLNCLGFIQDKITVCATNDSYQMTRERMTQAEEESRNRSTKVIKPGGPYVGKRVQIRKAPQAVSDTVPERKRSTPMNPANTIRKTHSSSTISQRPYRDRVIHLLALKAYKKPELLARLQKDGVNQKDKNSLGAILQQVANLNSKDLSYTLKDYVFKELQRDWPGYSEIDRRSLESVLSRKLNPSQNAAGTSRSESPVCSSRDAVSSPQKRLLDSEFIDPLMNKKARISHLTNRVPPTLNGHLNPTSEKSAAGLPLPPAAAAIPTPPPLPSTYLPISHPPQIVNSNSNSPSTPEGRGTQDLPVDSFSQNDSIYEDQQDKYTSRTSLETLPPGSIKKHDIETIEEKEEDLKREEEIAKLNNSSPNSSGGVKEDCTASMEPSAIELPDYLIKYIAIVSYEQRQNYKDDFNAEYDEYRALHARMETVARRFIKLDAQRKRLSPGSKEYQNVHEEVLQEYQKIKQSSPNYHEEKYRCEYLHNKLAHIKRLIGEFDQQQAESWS

What was measured:
[1] = target: Tax-1, EF-1a-driven (pEF-1α-Tax-1) (HTLV-1) (UniProt P03409); test: co-IP; 293T cells co-transfected, lysed after 48 h in TNE lysis buffer (10 mM NaCl, 10 mM Tris/HCl pH 7.0, 10 mM EDTA, 1% Triton X-100, 2 mM DTT); precipitation with anti-Tax antibodies overnight at 4 °C, protein G magnetic beads; blot for ELL2
[2] = target: FLAG-Tax-WT (pCAG-FLAG-Tax-WT) (HTLV-1) (UniProt P03409); test: co-IP; 293T cells co-transfected, lysed after 48 h in TNE lysis buffer; precipitation with anti-FLAG antibodies overnight at 4 °C, protein G magnetic beads; blot for ELL2
[3] = target: His-tagged version of Tax-1 (Tax-His) (HTLV-1) (UniProt P03409); test: co-IP; 293T cells co-transfected, lysed after 48 h in TNE lysis buffer (10 mM NaCl, 10 mM Tris/HCl pH 7.0, 10 mM EDTA, 1% Triton X-100, 2 mM DTT); precipitation with anti-Tax antibodies overnight at 4 °C, protein G magnetic beads; blot for ELL2
[4] = target: Tax-1 wildtype (Tax-WT), SV40-driven pSG-Tax-WT (HTLV-1) (UniProt P03409); test: as above
[5] = target: ELL2-myc (ELL2 wildtype, transcription elongation factor for RNA polymerase II 2) (not stated (the printed UniProt ID O00472 is the human entry)) (UniProt O00472); test: co-IP; 293T cells co-transfected, lysed after 48 h in TNE lysis buffer; precipitation with anti-ELL2 antibodies overnight at 4 °C, protein G magnetic beads; blot for Tax-1 or FLAG
[6] = target: endogenous ELL2 (human (endogenous in 293T)) (UniProt O00472); test: as above

“ELL2 ΔR2-myc (full-length ELL2 harboring a deletion of region R2, aa 443–474) (from UniProt O00472 1-640)” was tested, and the binding [1] was “binds”.
For “ELL2-C-myc (aa 353–640; R2 and R3) (from UniProt O00472 353-640) (domain or fragment)”, the binding [1] was “binds”.
With “ELL2-Met186-myc (aa 186–640; parts of R1, R2, and R3) (from UniProt O00472 186-640) (domain or fragment)” the binding [1] was “binds”.
“ELL2-N-myc (aa 1–515; R1 and R2) (from UniProt O00472 1-515) (domain or fragment)” was tested, and the binding [1] was “binds”.
“ELL2-R1-myc (aa 1–353) (from UniProt O00472 1-353) (domain or fragment)” was tested, and the binding [1] was “binds”.
With “ELL2-R2-myc (aa 353–515) (from UniProt O00472 353-515) (domain or fragment)” the binding [1] was “no binding”.
“ELL2-R3-myc (aa 515–640) (from UniProt O00472 515-640) (domain or fragment)” was tested, and the binding [1] was “binds”.
In the case of “ELL2-myc (ELL2 wildtype, transcription elongation factor for RNA polymerase II 2) (from UniProt O00472 1-640)”, the binding [2] is reported as “binds”, the binding [3] is reported as “binds” and the binding [4] is reported as “binds”. For the same substance, the binding [1] was “binds”.
For “FLAG-Tax-WT (pCAG-FLAG-Tax-WT) (from UniProt P03409 1-353)”, the binding [5] was “binds”.
For “His-tagged version of Tax-1 (Tax-His) (from UniProt P03409 1-353)”, the binding [5] was “binds”.
“Tax-1 wildtype (Tax-WT), SV40-driven pSG-Tax-WT (from UniProt P03409 1-353)” was tested, and the binding [5] was “binds” and the binding [6] was “binds weakly”.
